The full ranking holds about 33,000 sequences; the median of “E-score (-0.5 to 0.5)” is about -0.036, and the highest 2% start at about 0.37. Some of the results follow.
molecular target: T1, Yer064c (UniProt P40041); test: PBM E-score (8-mer binding enrichment) (E-score (-0.5 to 0.5)); higher = stronger / more preferred TF binding; most listed sequences are background and not binding sites; conditions: protein concentration: 200 nM; construct: GST-full length
T1 sequence: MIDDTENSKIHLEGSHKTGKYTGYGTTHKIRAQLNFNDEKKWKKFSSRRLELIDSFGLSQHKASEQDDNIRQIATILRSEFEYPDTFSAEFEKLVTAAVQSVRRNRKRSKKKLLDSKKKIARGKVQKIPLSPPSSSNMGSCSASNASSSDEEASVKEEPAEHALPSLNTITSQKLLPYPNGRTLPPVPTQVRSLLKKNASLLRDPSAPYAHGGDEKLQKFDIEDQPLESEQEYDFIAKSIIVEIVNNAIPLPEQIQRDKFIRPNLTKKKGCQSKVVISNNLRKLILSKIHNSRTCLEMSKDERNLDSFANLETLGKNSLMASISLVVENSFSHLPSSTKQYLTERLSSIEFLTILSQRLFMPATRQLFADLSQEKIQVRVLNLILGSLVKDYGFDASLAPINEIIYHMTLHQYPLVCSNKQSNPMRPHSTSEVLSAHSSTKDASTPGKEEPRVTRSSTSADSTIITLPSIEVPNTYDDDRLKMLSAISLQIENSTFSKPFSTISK
How it was run: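 GST-tagged yeast TFs (full-length or DNA-binding domain) were made by PURExpress in vitro transcription/translation and applied at about 100-200 nM to universal all-10-mer Agilent arrays. The arrays were made double-stranded by primer extension, on fresh or once-stripped slides. Bound protein was detected with fluorescent anti-GST, and scans were normalised with masliner. Each ungapped eight-base word, pooled with its reverse complement, received an E-score (modified Wilcoxon-Mann-Whitney statistic) from the Universal PBM Analysis Suite.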

Row | Sequence | PBM E-score
1 | CAAGTAAC | 0.0215
2 | AGTCAAAC | 0.35
3 | GCAAACAA | 0.0387
4 | GGCGTCCA | -0.271
5 | CAACGTTG | 0.0696
6 | CTCGTTAA | 0.166
7 | AATTCGGA | -0.0904
8 | ACGTTTAA | 0.099
9 | ATCTTTGC | -0.0319
10 | GCTTTACA | -0.0319
11 | ACATAGGG | 0.0467
12 | GATAAACA | 0.0421
13 | CGGATCAG | 0.107
14 | ACGGGTAT | 0.161
15 | CAACATCG | -0.127
16 | GGCAACTA | -0.0239
17 | CAGGGGTA | 0.00181
18 | CGCTAGCG | -0.0839
19 | AACCTTGT | -0.0899
20 | CGGCCCAG | -0.207
21 | CCTCGACG | -0.173
22 | ACCACTAG | -0.162
23 | ACCGTCAT | -0.0945
24 | TCTTCCCA | 0.00323
25 | AAGAATGA | 0.262

Row | Sequence | PBM E-score
26 | AAGATGCT | -0.0377
27 | GCGACAGC | -0.265
28 | CCAATCCA | -0.28
29 | ACTCCAGC | 0.142
30 | CCCGTCCG | -0.18
31 | GACTCCCC | 0.405
32 | AACCCCAC | -0.22
33 | GCGGCGTA | -0.146
34 | AACCCCAT | -0.15
35 | CAAGCACG | -0.0181
36 | ACATGGCA | -0.116
37 | ACATTGTG | -0.0703
38 | AAACACGG | -0.147
39 | ACGCGAAG | 0.0551
40 | AGAGGGGG | -0.38
41 | AGGAGTGA | 0.105
42 | ATTAATTA | 0.203
43 | AAACTACC | -0.139
44 | CGTTTCGA | -0.102
45 | ACGTGGCC | -0.212
46 | CAACCCGA | -0.0716
47 | GTAGGAAA | 0.00646
48 | GCTCCGTA | -0.249
49 | ATATATAC | 0.093
50 | AGCTCCCG | -0.0932

Row | Sequence | PBM E-score
51 | CATTCAAA | -0.0755
52 | CACAGTCG | 0.203
53 | ATGCAACA | -0.065
54 | TATATCCA | -0.172
55 | AACCAGGG | -0.11
56 | GTGTCAAC | 0.0879
57 | AGAATTTG | -0.102
58 | AAAGCTGG | -0.131
59 | GCCTATAA | -0.224
60 | GCGGACAC | -0.12
61 | AACCCAGC | 0.0469
62 | GCCTCAGA | -0.0779
63 | CAACCCCG | -0.126
64 | CGAACTCC | -0.0419
65 | AATTGTCT | -0.0929
66 | CAATTTTA | 0.103
67 | AGGGTTGG | -0.248
68 | TACCGATA | 0.0114
69 | AATGCGCA | -0.119
70 | AGTTACGG | 0.0599
71 | CTTCGCAC | -0.0934
72 | TGGAACAA | 0.0192
73 | GTCTCATA | 0.274
74 | CAGACAGC | -0.107
75 | ACAAGAGC | 0.0292

Row | Sequence | PBM E-score
76 | GTGCGTAA | -0.0832
77 | AATTCCTG | -0.107
78 | ATGTATTG | -0.0298
79 | AACAATAC | 0.0647
80 | CAGGTATC | -0.233
81 | TCACCACA | 0.183
82 | ATTACAAA | 0.205
83 | CATTTTTC | 0.116
84 | AGACCCTA | -0.101
85 | CAAGCCAC | 0.0724
86 | ATTCAGCG | -0.0722
87 | AAGTCTTC | 0.282
88 | AAATACGC | -0.128
89 | ACAATTCG | -0.121
90 | AGATGTTC | -0.196
91 | GACCCACA | 0.114
92 | AAATCCGC | -0.16
93 | CGGCACAA | 0.0246
94 | CCGCCCGA | -0.0938
95 | ATACGAAA | 0.0623
96 | ACCAGGGG | -0.0889
97 | AAATCGAG | 0.104
98 | GGTTTGTA | -0.126
99 | CGGCCTTC | -0.26
100 | CCATGTAC | -0.128

Row | Sequence | PBM E-score
101 | ACTAATAC | 0.166
102 | CGCTGCAC | -0.103
103 | CTGTTAAA | 0.0871
104 | GCCGTAAC | -0.0398
105 | CAGCCGGA | -0.00388
106 | AATACTGC | -0.0826
107 | ACTCCTTA | 0.0691
108 | CATTCCTA | 0.108
109 | GCCCACAA | -0.0851
110 | ACGGCACC | -0.33
111 | TCGAATCA | 0.369
112 | AAGTATAA | 0.123
113 | GTGCCGCA | -0.152
114 | TCATTCCA | 0.222
115 | AGCTCGAA | -0.119
116 | CAATGGCG | -0.256
117 | TCGAGGCA | -0.173
118 | AAAAGCGC | -0.162
119 | GAAATGGC | -0.103
120 | CGAGAGCC | -0.156
121 | ACCTAAGT | 0.189
122 | ATTGTCAA | 0.0689
123 | AACTAACC | 0.0831
124 | GATAAATC | 0.048
125 | ACGGGACT | 0.192

Row | Sequence | PBM E-score
126 | CAGTTACC | -0.0809
127 | ACGCCGCA | -0.172
128 | TCCCTCCA | -0.213
129 | CATAGAAG | -0.0371
130 | CAGCGGTA | -0.0158
131 | AGCCTAGA | -0.228
132 | CGTAGGGC | -0.276
133 | AATTGACA | -0.116
134 | ACGCTTCT | -0.19
135 | CCCGTACA | -0.279
136 | CGACTGAC | 0.315
137 | GATAGCTA | -0.0995
138 | CAAATATC | 0.00481
139 | GTACCAGA | -0.00811
140 | TGGTTTAA | 0.138
141 | ATTCCCCC | -0.179
142 | ATCTCGTG | 0.0462
143 | ATCACTCC | 0.194
144 | ATACGCAG | 0.0109
145 | CACGCCCC | -0.154
146 | GAGCTGGA | -0.0882
147 | GCCAACAC | 0.0868
148 | GTGCAGTA | -0.107
149 | CAATCTTC | 0.19
150 | AGTAAATA | 0.0177

Row | Sequence | PBM E-score
151 | AACGACCG | -0.125
152 | AGATAGCG | -0.125
153 | ATCTCTGC | -0.022
154 | CGACGCTC | 0.0634
155 | AGGTTGTC | -0.211
156 | GTTTGCAA | 0.195
157 | CTACGAGC | -0.0131
158 | CCTAGTCG | 0.263
159 | CTGGGCCC | -0.31
160 | CTGCACAC | -0.173
161 | ACTCAAGA | 0.3
162 | ATATTTTC | -0.0776
163 | AAGGCCTC | -0.0997
164 | ACGCTGTC | -0.181
165 | CGATTCGA | 0.0503
166 | CCGCGCAA | -0.0599
167 | ACACTAGT | 0.126
168 | AATGCCCC | -0.226
169 | TAACGCTA | -0.0624
170 | AACCTGTG | 0.0664
171 | AATTGGGA | -0.181
172 | ATGGCTTG | -0.159
173 | ATTTACTG | 0.0929
174 | AACAATGT | -0.0664
175 | CACTCTGG | -0.166

Row | Sequence | PBM E-score
176 | AGCCAATA | 0.0024
177 | GAGAAGGC | -0.344
178 | AAATAGTC | 0.382
179 | CACTCCCC | -0.147
180 | CCATGGGG | -0.124
181 | GGAATCTA | -0.134
182 | CGAGGTGA | 0.0922
183 | GACCGCCA | -0.188
184 | AACTTGGG | -0.0983
185 | AAGCTCGC | -0.0454
186 | CGTGAGTA | 0.323
187 | ATGATCTC | 0.118
188 | CAACCGCA | -0.0533
189 | CACCACCC | -0.077
190 | CGTACTTA | -0.00347
191 | AGCGCTGG | 0.0943
192 | AATCCATT | 0.221
193 | AACTTCCA | -0.0543
194 | AGGCCGAT | -0.0563
195 | GATGCAGC | -0.253
196 | ATACATCC | -0.162
197 | CAATTTCC | -0.112
198 | CAACTAGG | 0.0954
199 | CTCCCTGA | 0.0469
200 | ATATTGAG | 0.198

Row | Sequence | PBM E-score
201 | AAGCTAAC | 0.0575
202 | AGACCCAT | 0.0625
203 | ACGGAGAA | -0.162
204 | CCGTCTTC | -0.154
205 | AATTGCCT | -0.0277
206 | CACCAAAG | -0.0275
207 | CTACCTGA | 0.214
208 | ATGAACCC | -0.026
209 | GGTGCAGA | -0.143
210 | CGGGAGCA | -0.213
211 | CACTTTGC | 0.0624
212 | GCAGCAAC | -0.0574
213 | TATGTCCA | -0.238
214 | CATTACTA | 0.0127
215 | GAGGGGGC | -0.337
216 | ATACGCCC | -0.142
217 | ATCCACGA | 0.0848
218 | CAAGCAGC | -0.194
219 | AGGTTCTA | -0.212
